PubChem BioAssay AID1379 (National Center for Advancing Translational Sciences (NCATS), 2008)
Among all 200,000 compounds or so, about 560 (0.28%) were called active. The shares of active, inactive and inconclusive entries below differ from those in the screen. Calls come from the whole dose curve; as a rule, active = well fitted inhibition curve with a large enough effect; inconclusive = small, poorly fitted or top-dose-only effect; inactive = flat fitted curve, though single readings scatter. No potency is given beside an inconclusive call; the fits are too rough. Some structures have more than one record in an assay (separate samples or runs), and their calls can disagree.

Target: Luciferin 4-monooxygenase (Photuris pensylvanica) (UniProt Q27757)
Assay: Counterscreen for Luciferase (Kinase-Glo TM) Inhibition; note: nearly all actives have a fitted effect of over 60% in size
Conditions: ATP luminescence, 8 min; series mostly up to 38.3 µM; activity change, negative = inhibition: at the top concentration
Outline: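 Inhibition of Kinase-Glo luciferase light generation was assessed at 10 uM ATP in pH 7.2 imidazole buffer, with luminescence measured after eight minutes at ambient temperature.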
% is set by controls: 0 for no effect and ±100 for the full control effect; potency is the fitted concentration of half-maximal effect; tags give direction and shape of the fitted curve.

Structure (SMILES)	Potency	activity change, negative = inhibition
CCc1nnc(NC(=O)c2ccc3ccccc3n2)s1	inconclusive [inhibitor, single point]	
CN(C)c1ccc(NC(=O)c2cnsn2)cc1	inconclusive [inhibitor, partial curve]	
C/C(=N\OC(=O)c1ccc(Br)cc1)c1ccccn1	inconclusive [inhibitor, partial curve]	
CN(C)c1ccc(/C=N/NC(=O)c2ccco2)cc1	inconclusive [inhibitor, partial curve]	
O=C(N/N=C/c1ccccc1OCC(=O)N1CCCC1)C(=O)Nc1ccccc1F	active: 8.91 µM	
Cc1ccc(C2CC(=O)N3CN(c4ccc(Br)cc4)CSC3=C2C#N)o1 (centres undefined)	inconclusive [inhibitor, single point]	
O=C(Nc1ccc2c(c1)OCO2)c1ccc[n+]([O-])c1		inactive: -5.09%
COc1ccccc1NC(=S)NNC(=O)c1nn(C)cc1Cl		inactive: 0.0778%
O=C(/C=C/c1cccs1)N1CCc2ccccc21	inconclusive [inhibitor, partial curve]	
c1c2c(cc3sc(N4CCOCC4)nc13)OCCO2	inconclusive [inhibitor, partial curve]	
CCN(CC)c1ccc(NC2=C(Cl)C(=O)c3ccccc3C2=O)cc1	inconclusive [inhibitor, single point]	
COc1ccccc1NC(=O)c1sc(NC(=O)c2ccco2)c(C#N)c1C		inactive: -3.71%
COc1ccc2oc(=O)c(-c3csc(Nc4cccc(O)c4)n3)cc2c1		inactive: -2.49%
COc1cc(Nc2cc(C)nc3nc(C)nn23)cc(OC)c1OC		inactive: 1.61%
CCOC(=O)C1(CCCc2ccccc2)CCN(C(=O)CN2C(=O)CSC2=O)CC1		inactive: 3.97%
O=C1NC(=S)S/C1=C/c1ccc(N2CCOCC2)o1	inconclusive [inhibitor, partial curve]	
O=[N+]([O-])c1ccc(N/N=C/c2ccc[nH]2)cc1	inconclusive [inhibitor, partial curve]	
Cc1occc1C(=O)N/N=C/c1ccccn1	inconclusive [inhibitor, single point]	
O=c1oc2ccccc2c(O)c1/C=N/c1ncccn1	inconclusive [inhibitor, single point]	
N/C(=N\N=C\c1cccc(O)c1)c1nonc1N	active: 12.6 µM	
O=c1cc2c(nn1Cc1ccc(Cl)cc1)-c1ccccc1CC2		inactive: -2.99%
c1ccc2c(c1)CCN(c1nc3cc4c(cc3s1)OCO4)C2	inconclusive [inhibitor, single point]	
COc1ccc(C(=O)c2sc(Nc3ccccc3)c(C(=O)Nc3ccc(OC)c(OC)c3)c2N)cc1		inactive: -7.13%
N#Cc1c2nc3ccccc3nc2n2cc(NC(=O)c3ccc(F)cc3)ccc12	inconclusive [inhibitor, partial curve]	
COc1ccccc1Oc1ccc2c(c1)C(=O)N(c1ccccc1)C2=O		inactive: 0.439%
CC(=O)c1cc(NC(=O)c2ccc(C)cc2)c(=O)oc1C	inconclusive [inhibitor, partial curve]	
CC(=O)c1ccc(-c2nc3ccccc3n2C)o1	inconclusive [inhibitor, partial curve]	

Structure (SMILES)	Potency	activity change, negative = inhibition
COc1ccc(/C=N/Nc2nc3ccccc3o2)cc1O		inactive: -1.25%
CC(=O)c1cccc(NC(=O)Nc2ccc(C(=O)N3CCCC3)cc2)c1	inconclusive [inhibitor, partial curve]	
COc1ccc(C(=O)Nn2c(SCC(=O)NC3CCCCC3)nc3ccccc3c2=O)cc1	active: 14.1 µM	
CCOC(=O)c1c(-c2ccccc2)nc2c(C)cccn12		inactive: -2.63%
Cc1cc(-c2ccccc2)nc(N(C)N)c1S(C)(=O)=O		inactive: -2.03%
CN(C)c1ccc(/C=C(\Cl)c2nc3ccccc3s2)cc1	active: 12.6 µM	
Cc1cc(C)n(-c2ccc(N3CCOCC3)nn2)n1	inconclusive [inhibitor, partial curve]	
Cc1ccc(-n2[nH]c(C)c(C=Nc3ccc(Br)cn3)c2=O)cc1	inconclusive [inhibitor, partial curve]	
Cc1ccsc1/C=N/NC(=O)c1ccccn1	inconclusive [inhibitor, single point]	
O=C(/C=C\Nc1ccc2c(c1)OCO2)c1ccc2c(c1)OCO2	inconclusive [inhibitor, partial curve]	
O=C(Nc1cccc(Br)c1)c1ccc(OC2CSC2)cc1	inconclusive [inhibitor, single point]	
CCOC(=O)c1sc2nc(CSc3ccccc3)nc(NCCN(C)C)c2c1C		inactive: 0.329%
COC(=O)N/N=C\c1ccc(OC(=O)c2ccco2)cc1	inconclusive [inhibitor, partial curve]	
COc1ccc2c(=O)c(-c3ccccc3)coc2c1	active: 2.82 µM	
Cc1cccn2cc(COc3ccc(-c4ccccc4)cc3)nc12	inconclusive [inhibitor, single point]	
O=C(NCCc1c[nH]c2ccccc12)[C@H]1C[C@@H]1[C@H](NP(=O)(c1ccccc1)c1ccccc1)c1ccccc1		inactive: -1.76%
O=C(Nc1ccc(NC(=O)c2ccco2)cc1)c1ccc2c(c1)OCO2	inconclusive [inhibitor, partial curve]	
O=C(/C=C/Nc1cccc(O)c1)c1ccccc1	inconclusive [inhibitor, partial curve]	
CC(C)(C)C1CCc2[nH]c3ccccc3c(=O)c2C1 (centres undefined)	inconclusive [inhibitor, single point]	
Cc1nn(C(=O)c2c([N+](=O)[O-])cnn2C)c(C)c1Cl		inactive: 2.35%
Cc1ccc(/C=C/c2nc3ccccc3s2)s1	inconclusive [inhibitor, partial curve]	
NC(=O)c1ccc[n+]([C@@H]2O[C@H](COP(=O)([O-])OP(=O)(O)OC[C@H]3O[C@@H](n4cnc5c(N)ncnc54)[C@@H](O)[C@@H]3O)[C@@H](O)[C@@H]2O)c1	inconclusive [inhibitor, partial curve]	
CC(=O)Nc1ccc(Nc2ccc3c4c(cc(=O)n3C)-c3ccccc3C(=O)c24)cc1	inconclusive [inhibitor, single point]	
O=C(N/N=C/c1cccs1)c1ccccn1	inconclusive [inhibitor, single point]	
CC(O)CCC(=O)NNC(=S)Nc1ccccc1 (centres undefined)		inactive: 2.07%
Cc1ccc(N2CCOCC2)c2c1C(=O)c1ccccc1C2=O	inconclusive [inhibitor, partial curve]	
COc1ccc(NC(=O)Nc2cc(C)ccc2OC)cc1	inconclusive [inhibitor, single point]	

Structure (SMILES)	Potency	activity change, negative = inhibition
CC[n+]1c(/C=C/c2ccc(N(C)C)cc2)ccc2ccccc21	active: 8.91 µM	
COc1cccc(C(=O)Nc2ccc(N3CCCC3)cc2)c1	active: 4.47 µM	
CN(C)c1ccc(-c2nc3ccccn3c2/N=C/c2ccc(Br)cc2)cc1	inconclusive [inhibitor, single point]	
NC(=O)c1ccsc1NC(=O)c1ccc2c(c1)CCCC2	inconclusive [inhibitor, partial curve]	
C=CCN=C1NN=C(c2cc(C)n(CC=C)c2C)CS1	inconclusive [inhibitor, partial curve]	
O=C(CSc1ccc(F)cc1)N1CCN(S(=O)(=O)c2ccccc2)CC1		inactive: 2%
O=Nc1ccc(NOC(=O)c2ccccc2)cc1	active: 10 µM	
C=CC1=C(C)C2=NC1=CC1=NC(=CC3=NC(=CC4=NC(=C2)C(C)=C4CCC(=O)O)C(CCC(=O)O)=C3C)C(C=C)=C1C.[Zn]	inconclusive [inhibitor, partial curve]	
Cc1ccc(C(=O)Nc2nc3ccc(S(C)(=O)=O)cc3s2)o1	active: 12.6 µM	
Cc1cccc([C@H]2[C@@H]3C=CC(C)C[C@@H]3C(=O)N2Cc2ccccc2)c1 (some centres undefined)		inactive: 1.98% [at 39.9 µM]
O=C(CSc1nc2ccccc2[nH]1)c1c[nH]c2ccccc12		inactive: -1.42%
Cc1ccc(NC(=O)c2ccoc2C)cc1C	active: 10 µM	
Cc1ccc2oc3nc(C)c(C(=O)O)cc3c(=O)c2c1	active: 4.47 µM	
COc1ccccc1-c1cc(-c2ccc(C)cc2)nc(SCc2nnc(-c3ccccc3)o2)c1C#N		inactive: -0.144%
C(=N\Nc1ccc2ccccc2n1)/c1ccc2c(c1)OCO2	inconclusive [inhibitor, single point]	
CCOC(=O)COC(=O)c1ccc(O)cc1		inactive: -1.69%
Cc1cc(C)c2c(=O)n(CC(=O)NCCCN3CCN(c4ccccc4F)CC3)sc2n1	active: 11.2 µM	
S=C1NC2=C(CCC/C2=C\c2ccccc2)C(c2ccccc2)N1 (centres undefined)		inactive: 1.09%
O=C(N/N=C/c1cn(-c2cccs2)nc1-c1ccccc1)c1ccccc1O	inconclusive [inhibitor, partial curve]	
Cc1ccc(NCc2nc3ccccc3n2C)cc1	inconclusive [inhibitor, single point]	
S=C(NCCc1ccccn1)Nc1ccccc1Cl		inactive: -0.539%
O=C(/C=C\Nc1ccc2c(c1)OCO2)c1cccs1	active: 12.6 µM	
CC(=O)c1sc2nc(C)cc(C)c2c1N		inactive: 0.716%
O=C1/C(=C/c2cccs2)Sc2ccccc21	inconclusive [inhibitor, partial curve]	
COC(=O)c1ccc(-c2nc(-c3cccs3)no2)cc1	inconclusive [inhibitor, partial curve]	
